In general, % Inhibition refers to the drop in the measured response relative to a control, in per cent.

Hit rate of the full screen: of about 150,000 compounds, about 540 (0.36%) showed an effect of 50% or more. The list shows a part of the results.

The assay has as its system Plasmodium falciparum. The assay can be described thus: Primary screen in NF54 nanoGlo assay, in single point, at 2uM, 72h; a lower Z score goes with more inhibition. Type of assay: functional, Erythrocyte. To be noted: timepoint 72 hour.
For `c1cc(N[C@H]2CCCc3cn[nH]c32)nc(C2CC2)n1`, the “% Inhibition” value was -7% and the Z score was determined as 0.67.
In the same order, the values of `Cn1c(C(F)(F)F)nn(C2CCN(C(=O)NCCOc3ccccc3)CC2)c1=O` are -6% and 0.89.
Turning to `Cc1ccccc1NC(=O)N1CCN(C2=Nc3ccccc3Oc3ccccc32)CC1`, the “% Inhibition” value came to 4% and the Z score was -0.48.
Turning to `CN(C(=O)C1CC2CCCC(C1)C2=O)C1CCCCCC1` (stereo not drawn), the “% Inhibition” value is -5% and the Z score came out at 0.67.
In the same order, the values of `CO[C@@](C)(C(=O)N1CC(N2CCN(C)CC2)C1)c1ccccc1F` are 14% and -1.78.
The like results for `O=C(c1[nH]nc2c1CCC2)N1CC=C(c2ccccc2)CC1` were, in that order, 3% and -0.43.
In the same order, the values of `N#Cc1ccc(OCC(N)=O)c(Cl)c1` are -3% and 0.51.
Regarding `C[C@H](NC(=O)COc1ccc(F)c(C(F)(F)F)c1)C(=O)N(C)C`, the “% Inhibition” value is on record as -9% and the Z score is given as 0.97.
Turning to `COc1ccc([C@H](C#N)c2nc3ccccc3nc2N2CCN(c3ccc(F)cc3)CC2)cc1`, the “% Inhibition” value is -13% and the Z score amounted to 1.35.
`CCCc1nnc(NC(=O)NC(C)[C@@H]2C[C@H](C(=O)O)C2(C)C)s1` (stereo partly drawn): the “% Inhibition” value was 4% and the Z score was -0.53.
As to `Cc1ccccc1NC(=O)Nc1ccc(-n2nc(OCC(C)C)nc2-c2ccc3c(c2)OCO3)cc1`, the “% Inhibition” value was -10% and the Z score turned out to be 0.89.
The like results for `Cc1cnc(N2CCCn3nc(CNC(=O)N(C)C)cc3C2)nc1N(C)C` were, in that order, 2% and -0.44.
In the same order, the values of `COC[C@](C)(NC(=O)CN(C)C)c1ccccc1` are -11% and 1.45.
The like results for `O=C(Cc1csc(N2CCCNC2=O)n1)NC1CCCC1OCc1ccccc1` (stereo not drawn) were, in that order, -15% and 2.31.
As to `CN(CC1CCCCC1)C(=O)[C@@H]1COC(=O)N1`, the “% Inhibition” value was -5% and the Z score stood at 0.61.
Regarding `CC(C)[C@H]1CN(Cc2c[nH]nc2-c2ccc(Cl)cc2)C[C@@H]1N(C)C`, the “% Inhibition” value is on record as -5% and the Z score was 0.81.
The like results for `CC(C)c1cc([C@@H]2CCCN2Cc2cccc(F)c2)no1` were, in that order, -10% and 1.4.
In the case of `COc1ccc(C(=O)Nc2ccc(CCc3nc4ccccc4[nH]3)cc2)c(OC)c1`, the “% Inhibition” value turned out to be 10% and the Z score was -1.01.
In the same order, the values of `Cc1cccnc1C[C@H](C)n1cnc2c(C)cccc2c1=O` are 6% and -1.08.
For the compound `COc1cccc(NC(=O)CN2CCC3(CC2)NC(c2ccc(OC(F)(F)F)cc2)=NO3)c1`, the “% Inhibition” value is recorded as -9% and the Z score turned out to be 1.27.
`COc1cc(C)ccc1CN1CCCNC(=O)C1`: the “% Inhibition” value is recorded as -16% and the Z score worked out at 2.07.
Take `c1ccc2c[n+](Cc3ccc4ccccc4n3)ccc2c1`: the “% Inhibition” value was determined as 59% and the Z score was -7.39.
Take `CCOc1cccc2c1N(C(=O)COc1ccccc1)C(C)(C)c1ssc(=S)c1-2`: the “% Inhibition” value is listed as -2% and the Z score was 0.29.
The like results for `CN(C)CCc1ccc(NC(=O)c2cc(F)c(F)c(O)c2F)cc1` were, in that order, -5% and 0.92.
On to `CO[C@@]12CC[C@@H](NC(=O)C3CCC3)C[C@@H]1N(C(=O)c1cnc(N)nc1C)CC2`, for which the “% Inhibition” value was -1% and the Z score was 0.13.
The like results for `CCn1ncnc1[C@@H](NC(=O)Cn1nc(C)cc1N)C1CC1` were, in that order, -16% and 3.15.
Turning to `CC1CN(C(=O)OC(C)(C)C)C(C)CN1` (stereo not drawn), the “% Inhibition” value is reported as -10% and the Z score was found to be 1.08.
Take `O=C(O)c1ccc(N2CCC(CCN3CCCCC3)CC2)c(NC(=O)c2ccc(Cl)cc2)c1`: the “% Inhibition” value stood at 11% and the Z score is given as -1.66.
The like results for `CC(Cc1ccco1)NC(=O)C(C)n1cncn1` (stereo not drawn) were, in that order, -13% and 1.71.
Take `O=C(Cc1coc(-c2cccs2)n1)N1CCC[C@H]1C1CCC1`: the “% Inhibition” value is on record as -9% and the Z score was 1.35.
In the same order, the values of `Cn1cc(-c2c(Cl)n(C)c(=O)n(C)c2=O)c(=O)n(C)c1=O` are 1% and -0.13.
The like results for `CCn1c(C(=O)OC)c(NC(C)=O)c2cc(NC3CCCCC3)cnc21` were, in that order, 7% and -0.94.
For `CCN(C(=O)c1ccncc1)C1CCCCC1`, the “% Inhibition” value is given as -12% and the Z score was 1.34.
The like results for `C[C@H](NCC(=O)NC1CCCCCCC1)c1ccccc1` were, in that order, -13% and 2.46.
In the same order, the values of `CCc1nnc(NC(=O)COCC(F)(F)F)s1` are 1% and -0.18.
As for `CCCCS(=O)(=O)N[C@@H](CC)Cn1ccnc1`, the “% Inhibition” value is -18% and the Z score is on record as 1.78.
The like results for `Cc1ncc(C)c(NC(=O)c2ccoc2C2CC2)n1` were, in that order, 5% and -0.57.
In the same order, the values of `O=C(c1ccc(F)cc1)c1ccccc1C(=O)N1CCc2[nH]c3ccc(F)cc3c2C1` are -3% and 0.67.
The like results for `Cc1ccc(C(=O)N(C)C2CCCCC2)c(C2CCN(C(=O)c3ccc(F)cc3F)CC2)n1` were, in that order, 0% and 0.01.
Regarding `COc1ccc(NCc2ccc(N3N=C(c4ccccc4)C(C)(C)[C@H]3c3ccccc3)cc2)cc1`, the “% Inhibition” value was -3% and the Z score stood at 0.41.
As to `Cc1ccc(N2C[C@@H](C(=O)N3CCN(C)CC3)CC2=O)cc1`, the “% Inhibition” value was -8% and the Z score worked out at 1.11.
In the same order, the values of `CCn1cncc1S(=O)(=O)N(C)c1cccc(C(C)C)c1` are -6% and 0.69.
In the case of `CC1CCC(CC(=O)N2CC[C@]3(CCN(C)C3)C2)CC1` (stereo partly drawn), the “% Inhibition” value is -2% and the Z score is on record as 0.27.
Turning to `O=S(=O)(Nc1ccc(O)c2cccnc12)N1CCCC1`, the “% Inhibition” value is 46% and the Z score is given as -3.88.
In the case of `CC(C)OCCC(=O)N(C)C[C@@H]1C[C@H](F)CN1c1ccncn1`, the “% Inhibition” value is 1% and the Z score is listed as -0.09.
In the case of `CNc1ncccc1CN1C[C@H](OC(C)C)[C@@H](O)C1`, the “% Inhibition” value is recorded as -5% and the Z score is 0.52.
For `O=c1cc([C@H]2C[C@H](Nc3nc4ccccc4o3)C2)nc(C2CC2)[nH]1`, the “% Inhibition” value was -12% and the Z score stood at 1.46.
Take `O=C(C1C2CCC(C2)N1C(=O)NC1CCCCC1)N1CCOCC1` (stereo not drawn): the “% Inhibition” value is recorded as -8% and the Z score worked out at 1.3.
The like results for `N[C@H]1CCC[C@@H](c2ncnn2CCc2ccccc2)C1` were, in that order, -8% and 1.18.
The like results for `C/C1=C\CCC2C(/C=C(\C)CC1)OC(=O)C2CN1CCCCC1` (stereo not drawn) were, in that order, 6% and -0.78.
The like results for `CN(C(=O)NCCc1cc(Cl)cc(Cl)c1)C1CCCCC1` were, in that order, -12% and 1.73.
Regarding `Cn1nccc1C1CC(NC(=O)NC2CC3CC3C2)CCO1` (stereo not drawn), the “% Inhibition” value worked out at 8% and the Z score was -0.82.
Consider `CC1CCN(C(=O)c2ccccc2N2CCC(NC(=O)c3ccco3)CC2)CC1`, for which the “% Inhibition” value is listed as -2% and the Z score was found to be 0.42.
On to `O=C(NCc1cccc(F)c1)N1CC2CC1CS2(=O)=O` (stereo not drawn), for which the “% Inhibition” value was -5% and the Z score was 1.04.
In the same order, the values of `O=C(Cc1c[nH]c2ccccc12)N1CCN(C(=O)NC2CCCC2)CC1` are -29% and 3.38.
As to `CC(C)c1ocnc1C(=O)NS(=O)(=O)CC1CCOCC1`, the “% Inhibition” value is recorded as -3% and the Z score worked out at 0.38.
In the same order, the values of `Cc1nn(C)cc1C1=NO[C@H]2C(=O)N(c3ccc(Cl)cc3)C(=O)[C@@H]12` are -5% and 0.7.
In the same order, the values of `COc1cccc(CNC(=O)CCNC(=O)Cn2ccc3ccccc3c2=O)c1` are -4% and 0.52.
As to `Cc1nc2nc(CN3CCC(CNC(=O)[C@H]4CCCO4)CC3)cc(O)n2n1`, the “% Inhibition” value is -22% and the Z score is 2.76.
In the same order, the values of `CN(C)c1ccc(C(=O)N[C@H]2CO[C@H]3[C@@H]2OC[C@@H]3n2nnnc2Oc2ccc3c(c2)OCO3)cc1` are -11% and 1.35.
On to `CO[C@H]1C[C@@H](Cn2nnnc2N2CCC[C@H]2c2ccsc2)C1`, for which the “% Inhibition” value is reported as -3% and the Z score came out at 0.42.
Turning to `Cc1cc(C(=O)N(CCC(=O)NCCc2ccccc2)CC(C)C)c(C)o1`, the “% Inhibition” value is -13% and the Z score is 1.85.
`O=C1C(CC(=O)N2CCCC[C@H]2c2cccnc2)N=C(O)N1CCc1ccccc1` (stereo partly drawn): the “% Inhibition” value is reported as -4% and the Z score is recorded as 0.53.
In the same order, the values of `c1ccc(Cc2noc(CN3CCOC4CCCCC43)n2)cc1` (stereo not drawn) are -6% and 0.81.
In the same order, the values of `Cc1noc(CCCN2C(=O)c3ccccc3C2=O)n1` are -6% and 0.75.
The like results for `Cc1ccc(N(C)C(=O)c2c3c(nn2C)CCS(=O)(=O)C3)c(C)c1` were, in that order, -11% and 1.72.
As to `COC(=O)c1sc(NC(=O)c2cc(-c3ccc(C)c(F)c3)on2)nc1C`, the “% Inhibition” value is -10% and the Z score was found to be 1.89.
In the same order, the values of `CN(C)c1ccccc1CNS(=O)(=O)CCC1CCOCC1` are -10% and 0.82.
In the same order, the values of `O=c1[nH]n(C2CCOCC2)c2c1[C@@H](c1cccc(OC(F)F)c1)CC(O)=N2` are 35% and -3.95.
Consider `COCCNC(N)=NCc1cccc(C(C)C)c1`, for which the “% Inhibition” value is -6% and the Z score is recorded as 0.81.
The like results for `Cc1ccc(N(C)C(C)C)c(C(=O)O)c1` were, in that order, 9% and -1.8.
Consider `COc1cccc([C@H]2CC(=O)Nc3ccsc32)c1OCc1cccc(F)c1`, for which the “% Inhibition” value was 9% and the Z score is given as -1.15.
For the compound `CCC(CC)N(CCNC(=O)C1CC2C=CC1C2)C(=O)C1CC2C=CC1C2` (stereo not drawn), the “% Inhibition” value was determined as 2% and the Z score is listed as -0.31.
As to `CCOc1ccc([C@@H]2CC(c3ccc(C)cc3)=NN2C(=O)CN2CCN(Cc3ccccc3)CC2)cc1`, the “% Inhibition” value is 28% and the Z score is recorded as -3.59.
Turning to `CCCN(Cc1cnn(C)c1)S(=O)(=O)Cc1cccc(OC)c1`, the “% Inhibition” value is -8% and the Z score amounted to 1.07.
On to `COc1ccccc1CNC(=O)c1cc(C)nc2c(-c3ccc(C)cc3)cccc12`, for which the “% Inhibition” value turned out to be 12% and the Z score is -1.38.
In the case of `COCCn1ccc(-c2cccc(-c3nc(C)cnc3C)c2)n1`, the “% Inhibition” value was found to be 9% and the Z score is given as -1.62.
Consider `CCc1nc2c(c(NCc3ccc(OC)c(F)c3F)n1)CCNCC2`, for which the “% Inhibition” value was -6% and the Z score stood at 1.04.
In the same order, the values of `CCCn1nnc(NC(=O)C(C)(C)C)n1` are -15% and 1.89.
Consider `Cc1cc(C(=O)COc2cccc(Cl)c2Cl)c(C)n1Cc1ccc2c(c1)OCO2`, for which the “% Inhibition” value is reported as -20% and the Z score was found to be 2.03.
The like results for `CC[C@H]1c2cccn2CCN1C(=O)c1cnn(Cc2ccccc2)c1` were, in that order, -13% and 1.51.
`CCN(Cc1noc(C)n1)C(=O)NCC1(N2CCCCC2)CCCC1`: the “% Inhibition” value is given as -20% and the Z score was found to be 1.79.
The like results for `Cc1cccc(N2C(=O)[C@@H]3Cc4c([nH]c5ccccc45)C(c4cccc(Cl)c4)N3C2=O)c1` (stereo partly drawn) were, in that order, -13% and 1.62.
The like results for `CN1CCO[C@H](C(=O)N2CCC3(CC2)OCCc2ccccc23)C1` were, in that order, 2% and -0.24.

The values above are taken from ChEMBL document CHEMBL4888484, “Replenishing the malaria drug discovery pipeline: Screening and hit evaluation of the MMV Hit Generation Library 1 (HGL1) against asexual blood stage Plasmodium falciparum ,using a nano luciferase reporter read-out” (2022).
